According to article PMC9911399, “Two distinct binding modes provide the RNA-binding protein RbFox with extraordinary sequence specificity”:
Positions count from the first letter of the chain named. Some of the results follow.

T1: RBFOX1 RRM RbFoxmut (Fox-RRM*) (Homo sapiens, UniProt Q9NWB1 109-208, R118D;E147R;N151S;E152T)
T1 sequence: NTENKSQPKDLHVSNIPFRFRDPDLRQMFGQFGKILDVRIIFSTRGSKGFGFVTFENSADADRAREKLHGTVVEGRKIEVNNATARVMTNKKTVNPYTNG

B1: CCGCAAA (DNA:RNA)
RNA: GGGAGACCGGAAUUCAGAUUGUCCCCGCAAAUUAAAUCCCGUCGUAGCCACCA
DNA 1: CAATCTGAATTCCGGTCTCCC
DNA 2: TGGTGGCTACGACGGGATT
B2: UCUUAAG (DNA:RNA)
RNA: B1 RNA with C25U, G27U, C28U, A31G
DNA 1: CAATCTGAATTCCGGTCTCCC
DNA 2: TGGTGGCTACGACGGGATT
B3: GCCAUUU (DNA:RNA)
RNA: B1 RNA with C25G, G27C, C28A, A29U, A30U, A31U
DNA 1: CAATCTGAATTCCGGTCTCCC
DNA 2: TGGTGGCTACGACGGGATT
B4: GCACAUU (DNA:RNA)
RNA: B1 RNA with C25G, G27A, A30U, A31U
DNA 1: CAATCTGAATTCCGGTCTCCC
DNA 2: TGGTGGCTACGACGGGATT
B5: UGUAGGG (DNA:RNA)
RNA: GGGAGACCGGAAUUCAGAUUGUCCUGUAGGGUUAAAUCCCGUCGUAGCCACCA
DNA 1: CAATCTGAATTCCGGTCTCCC
DNA 2: TGGTGGCTACGACGGGATT
B6: UGAUUAU (DNA:RNA)
RNA: B5 RNA with U27A, A28U, G29U, G30A, G31U
DNA 1: CAATCTGAATTCCGGTCTCCC
DNA 2: TGGTGGCTACGACGGGATT
B7: ACGUUAA (DNA:RNA)
RNA: B1 RNA with C25A, C28U, A29U
DNA 1: CAATCTGAATTCCGGTCTCCC
DNA 2: TGGTGGCTACGACGGGATT
B8: CGAGUGA (DNA:RNA)
RNA: B1 RNA with C26G, G27A, C28G, A29U, A30G
DNA 1: CAATCTGAATTCCGGTCTCCC
DNA 2: TGGTGGCTACGACGGGATT
B9: CCUGGCG (DNA:RNA)
RNA: B5 RNA with U25C, G26C, A28G, G30C
DNA 1: CAATCTGAATTCCGGTCTCCC
DNA 2: TGGTGGCTACGACGGGATT
B10: UGAACGA (DNA:RNA)
RNA: B5 RNA with U27A, G29C, G31A
DNA 1: CAATCTGAATTCCGGTCTCCC
DNA 2: TGGTGGCTACGACGGGATT
B11: CGCCACU (DNA:RNA)
RNA: B1 RNA with C26G, G27C, A30C, A31U
DNA 1: CAATCTGAATTCCGGTCTCCC
DNA 2: TGGTGGCTACGACGGGATT
B12: AUUGCCA (DNA:RNA)
RNA: B1 RNA with C25A, C26U, G27U, C28G, A29C, A30C
DNA 1: CAATCTGAATTCCGGTCTCCC
DNA 2: TGGTGGCTACGACGGGATT
B13: GAGGUAC (DNA:RNA)
RNA: B1 RNA with C25G, C26A, C28G, A29U, A31C
DNA 1: CAATCTGAATTCCGGTCTCCC
DNA 2: TGGTGGCTACGACGGGATT
B14: CGAGGGU (DNA:RNA)
RNA: B5 RNA with U25C, U27A, A28G, G31U
DNA 1: CAATCTGAATTCCGGTCTCCC
DNA 2: TGGTGGCTACGACGGGATT
B15: GCCCAGG (DNA:RNA)
RNA: B1 RNA with C25G, G27C, A30G, A31G
DNA 1: CAATCTGAATTCCGGTCTCCC
DNA 2: TGGTGGCTACGACGGGATT
B16: ACCCCCA (DNA:RNA)
RNA: B1 RNA with C25A, G27C, A29C, A30C
DNA 1: CAATCTGAATTCCGGTCTCCC
DNA 2: TGGTGGCTACGACGGGATT
B17: CUAUAUC (DNA:RNA)
RNA: B1 RNA with C26U, G27A, C28U, A30U, A31C
DNA 1: CAATCTGAATTCCGGTCTCCC
DNA 2: TGGTGGCTACGACGGGATT
B18: CGUUCAC (DNA:RNA)
RNA: B1 RNA with C26G, G27U, C28U, A29C, A31C
DNA 1: CAATCTGAATTCCGGTCTCCC
DNA 2: TGGTGGCTACGACGGGATT
B19: GUUCUAG (DNA:RNA)
RNA: B1 RNA with C25G, C26U, G27U, A29U, A31G
DNA 1: CAATCTGAATTCCGGTCTCCC
DNA 2: TGGTGGCTACGACGGGATT
B20: GCGGGGA (DNA:RNA)
RNA: B1 RNA with C25G, C28G, A29G, A30G
DNA 1: CAATCTGAATTCCGGTCTCCC
DNA 2: TGGTGGCTACGACGGGATT

target: T1, RBFOX1 RRM RbFoxmut (Fox-RRM*); assay: EMSA; HiTS-Eq, 1 nM pool, 10 min; buffer printed only for the single-RNA assays: 10 mM Tris pH 7.5, 150 mM NaCl, 3.4 mM EDTA, 0.001% NP-40, 30 C; settings: tags: His6 N-terminal (pET28a); label: 5' 32P
How it was run: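 These values rest on relative association constants, computed from read-count changes of each RNA species versus the control reaction and normalised to the cognate motif. Reads came from free RNA recovered by 8% native PAGE after purified RbFox RRM (wild type or mutant) at increasing concentrations was equilibrated for 10 min in 50 µL with 1 nM of a 5′-radiolabelled pool with 7 randomized nucleotides and DNA-annealed flanks.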

Binder | binding signal
B1 | 0.0843 KA relative to UGCAUGU
B2 | 0.125 KA relative to UGCAUGU
B3 | 0.0825 KA relative to UGCAUGU
B4 | 0.107 KA relative to UGCAUGU
B5 | 0.0751 KA relative to UGCAUGU
B6 | 0.135 KA relative to UGCAUGU
B7 | 0.123 KA relative to UGCAUGU
B8 | 0.13 KA relative to UGCAUGU
B9 | 0.12 KA relative to UGCAUGU
B10 | 0.165 KA relative to UGCAUGU
B11 | 0.0957 KA relative to UGCAUGU
B12 | 0.133 KA relative to UGCAUGU
B13 | 0.0925 KA relative to UGCAUGU
B14 | 0.0907 KA relative to UGCAUGU
B15 | 0.0824 KA relative to UGCAUGU
B16 | 0.0825 KA relative to UGCAUGU
B17 | 0.0777 KA relative to UGCAUGU
B18 | 0.0955 KA relative to UGCAUGU
B19 | 0.111 KA relative to UGCAUGU
B20 | 0.0917 KA relative to UGCAUGU
